Patent US20070269437A1, “Pro-Inflammatory and Anti-Inflammatory Antibodies Against the Heparin-Binding Protein (Hbp)” (Leukotech A/S, priority 2003, published 2007)

Tested on: production of IL-6 in whole human blood
Assay: Whole blood screening assay (IL-6 secretion)

| Molecule | effect on IL-6 secretion (in words) (added alone) | effect on IL-6 secretion (in words) (added together with PGN) | IL-6 (hHBP 20-44 peptide 90 μg/ml alone) | IL-6 (hHBP 20-44 peptide 180 μg/ml alone) | IL-6 (hHBP 20-44 peptide 360 μg/ml alone) | amplification of the cytokine secretion induced by bacterial products (160 μM HBP per ml WB) |
| --- | --- | --- | --- | --- | --- | --- |
| hHBP 20-44 peptide: fragment of human HBP consisting amino acids 20-44 according to SEQ ID NO: 1 (NQGRHFCGGALIHARFVMTAASCFQ; listed as Homo sapiens) | enhanced the IL-6 secretion | enhanced the IL-6 secretion | 60.7 pg/mL and 51.9 pg/mL | 122.7 pg/mL and 142.7 pg/mL | 510.5 pg/mL and 366.6 pg/mL | – |
| HBP: heparin-binding protein isolated from azurophile granules of human PMNs (protein, UniProt P20160 27-248, looked up) Azurocidin: IVGGRKARPRQFPFLASIQNQGRHFCGGALIHARFVMTAASCFQSQNPGVSTVVLGAYDLRRRERQSRQTFSISSMSENGYDPQQNLNDLMLLQLDREANLTSSVTILPLPLQNATVEAGTRCQVAGWGSQRSGGRLSRFPRFVNVTVTPEDQCRPNNVCTGVLTRRGGICNGDGGTPLVCEGLAHGVASFSLGPCGRGPDFFTRVALFRDWIDGVLNNPGP | – | – | – | – | – | at least three-fold amplification |

Where “and” joins values, the source holds several entries; their conditions need not be identical. Equal entries are not always repeated.
